Tested on: Z. tritici IPO323
Conditions: for 5×IC100: Z. tritici, fungicide amended plates used to confirm resistant colonies

| SMILES | 5×IC100 [µg/mL] | inhibition of plate growth, times better than ODS-I [times] |
| --- | --- | --- |
| CO/C=C(/C(=O)OC)c1ccccc1Oc1cc(Oc2ccccc2C#N)ncn1 [Azoxystrobin] | 1.5 | – |
| Cn1cc(C(=O)Nc2ccccc2-c2cc(F)c(F)c(F)c2)c(C(F)F)n1 [Fluxapyroxad] | 3.0 | – |
| CCCCCCCCCCCCCCCCCC[S+](C)C.[Cl-] [ODS-Cl, octadecyl dimethyl sulfonium chloride] | – | ~2.5 |
